Data from publication PMC8015715 (Genes & Development, 2021).

Target: T1, GST-tagged Rbm38-S195D (human, UniProt Q9H0Z9 1-239, S195D)
T1 sequence (looked up): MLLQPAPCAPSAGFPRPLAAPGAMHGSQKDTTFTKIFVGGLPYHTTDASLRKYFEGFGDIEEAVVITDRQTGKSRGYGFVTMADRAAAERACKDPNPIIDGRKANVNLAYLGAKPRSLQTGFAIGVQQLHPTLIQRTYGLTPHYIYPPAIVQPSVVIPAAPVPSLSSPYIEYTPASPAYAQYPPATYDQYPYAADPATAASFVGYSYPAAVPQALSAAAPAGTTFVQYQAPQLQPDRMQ
Test: pull-down

B1: recombinant eIF4E-D202K (natural protein)
chain: not shown
  binding result: binds
